PubChem BioAssay AID1347073 (National Center for Advancing Translational Sciences (NCATS), 2019)
About 200 (0.44%) of roughly 45,000 compounds were called active. Another 7% or so got no clear call; they are omitted. Calls come from the whole dose curve; as a rule, active = well fitted activation curve with a large enough effect; inconclusive = small, poorly fitted or top-dose-only effect; inactive = no such curve, though single readings can be large or run the other way. The list shows a part of the results.

Assay: qHTS of TDP-43 Inhibitors: NCGC Sytravon Library Screen; note: 0% is about no effect; nearly all actives have a fitted effect of over 55% in size
Conditions: yeast TDP-43 toxicity rescue, BacTiter-Glo growth, 24 h; series mostly up to 46.1 µM; growth rescue (activation): at the top concentration
Procedure, shortened: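 TDP-43-expressing yeast, pregrown in raffinose, seeded at OD600 0.02 in galactose medium with compound for 24 hr at 30 deg C. Growth read by BacTiter-Glo luminescence, so rescue of toxicity appears as activation.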

Row | Compound | growth rescue (activation)
1 | Cn1cc(C(=O)Nc2ccc(C#N)cc2)c2ccccc2c1=O | inactive: 1.48%
2 | N/C(=N\OCC(=O)Nc1ccccc1)c1nonc1N | inactive: 1.59%
3 | COc1cc(/C=N\Nc2nc(-c3cccs3)c(NC(C)=O)s2)ccc1O | inactive: -0.488%
4 | O=C(NCC(=O)N(c1cccnc1)C(C(=O)NC1CCCCC1)c1ccccc1F)c1ccco1 (stereo not given) | inactive: -13.9%
5 | CC(=O)NC(Cc1cccc(F)c1)C(=O)NC1CCN(c2nnnn2-c2ccccc2)CC1 (stereo not given) | inactive: 1.84%
6 | O=C(COc1ccc(S(=O)(=O)N2CCCC2)cc1)Nc1ccc(F)cc1 | inactive: 5.62%
7 | Cc1cc(NC(=O)CN2C(=O)/C(=C/c3cccc(Br)c3)SC2=S)no1 | inactive: 5.56%
8 | Cc1ccc(C(=O)NCCSCc2ccc(Cl)cc2Cl)cc1[N+](=O)[O-] | inactive: 27.1%
9 | COc1ccc(Cl)cc1-c1nc(SCC(=O)NC(C)C(C)C)n[nH]1 (stereo not given) | inactive: -2.25%
10 | CC(C)(C)NC(=O)Cn1c(SCC(=O)NC2CCCC2)nc2ccccc21 | inactive: 10.2%
11 | CN(CC(=O)Nc1ccccc1C(F)(F)F)C(=O)CSc1nnc(N)s1 | inactive: -5.37%
12 | O=C(Nc1nc2nccc(-c3ccccc3)n2n1)c1ccccc1 | inactive: -3.9%
13 | Cc1cc2nc(NC(=O)C3(C)CCCN(C(C)C)C3)[nH]c2cc1C (stereo not given) | inactive: -10.8%
14 | Cc1ccc(NC(=O)CN2C(=O)c3ccccc3S2(=O)=O)c(C)c1 | inactive: 6.56%
15 | COc1cc(Cl)c(C)cc1NC(=O)c1cccc(OC)c1OC | inactive: 16%
16 | Cc1nnc(SCC(=O)N2CCOCC2)n1C | inactive: 7.96%
17 | Fc1ccc2c(c1)C(c1ccncc1)=NNC(c1ccc(Br)cc1)=N2 | inactive: 4.22%
18 | Cc1ccc(NC(=O)CCn2c(=O)[nH]c3ccsc3c2=O)cc1 | inactive: 8.39%
19 | CCN(CC)S(=O)(=O)c1ccc(NS(=O)(=O)c2cccs2)cc1 | inactive: 3.83%
20 | Cc1cc(C(=O)COC(=O)Cc2n[nH]c(=O)c3ccccc23)c(C)n1-c1ccc2c(c1)OCCO2 | inactive: 11.4%
21 | COc1ccc(NC(=S)NN2CCN(C)CC2)cc1 | inactive: 3.37%
22 | CCCN1C(=O)/C(=C/c2ccccc2OCc2ccc(C(=O)O)cc2)NC1=S | inactive: 20.5%
23 | Cc1cccc(C(=O)NCCNC(=O)c2cccnc2)c1 | inactive: -6.49%
24 | Cc1ccccc1Cn1nc(C)c(NC(=O)c2cc(CC(C)C)on2)c1C | inactive: 19.8%
25 | COCCn1c(-c2ccc(NC(C)=O)cc2)nc2c1c(=O)[nH]c(=O)n2CC(C)C | inactive: 12.5%
26 | COCCn1c(=O)[nH]c2cc(C(=O)Nc3cc(C)cc(C)c3)ccc2c1=O | inactive: 2.49%
27 | CC(C)N(Cc1cnn(C)c1)C(=O)C1CCC(=O)N(CCc2cccc(F)c2)C1 (stereo not given) | inactive: 13.1%

Row | Compound | growth rescue (activation)
28 | COC(=O)CCC(=O)N1CCOCCOCCOCC1 | inactive: 6.69%
29 | COCCCn1c(C)cc(C(=O)COC(=O)CCc2nc3ccccc3c(=O)[nH]2)c1C | inactive: 35%
30 | CCN(CC)S(=O)(=O)c1ccc(Cl)c(NC(=O)c2ccc(C#N)cc2)c1 | inactive: -5.03%
31 | COc1cc(NC(=O)c2ccccc2F)ccc1NC(=O)c1cc2ccccc2o1 | inactive: 12.3%
32 | CCCNC(=S)N1CCN(Cc2ccc3c(c2)OCO3)CC1 | inactive: -6.14%
33 | Cc1cc(C)nc(CCNC(=O)c2cc(COc3ccc(F)cc3Cl)on2)n1 | inactive: 35.4%
34 | O=c1[nH]c2c(c(=O)[nH]1)CCC2 | inactive: 2.48%
35 | CC(Sc1nncn1C)C(=O)Nc1cc(C(F)(F)F)ccc1N1CCOCC1 (stereo not given) | inactive: 1.36%
36 | COc1ccccc1CC(=O)NNC(=O)c1ccco1 | inactive: -7.58%
37 | COc1ccccc1CNC(=O)CN(C)S(=O)(=O)c1ccc(F)cc1 | inactive: -6.86%
38 | Cc1ccc(NC(=O)CSc2nc(N)cc(=O)[nH]2)cc1S(=O)(=O)N1CCCCC1 | inactive: -4.89%
39 | COc1ccc(N2Cc3ccccc3C2=NC(=O)c2cncc(Br)c2)cc1 | inactive: 2.96%
40 | c1ccc2c(c1)oc1c(-c3cccc4nccn34)cccc12 | inactive: 8.79%
41 | CCCCCCCCCCOC(=O)Cn1c(COc2ccccc2C)[n+](C)c2ccccc21 | inactive: -91.3%
42 | O=C(CNC(=O)c1ccc(Cl)cc1)Nc1ccc(S(=O)(=O)Nc2ncccn2)cc1 | inactive: 2.38%
43 | Cc1ccc(NC(=O)c2oc3ccccc3c2COC(C)C)cc1S(=O)(=O)N1CCOCC1 | inactive: 27.9%
44 | CC(=O)Oc1ccc(-c2ccc(C(=O)NCCc3ccc(S(N)(=O)=O)cc3)cc2)cc1 | inactive: -5.04%
45 | Cc1cc(C)n2nc(C(=O)N/N=C/c3ccc(Cl)cc3)nc2n1 | inactive: 7.29%
46 | CCC(C(=O)NC1CCCCC1)N(Cc1cccs1)C(=O)CCC(=O)Nc1cc(C)on1 (stereo not given) | inactive: 2.74%
47 | CCN(CC)S(=O)(=O)c1cccc(C(=O)NC(C(=O)NCCc2ccccn2)C(C)C)c1 (stereo not given) | inactive: -4.22%
48 | CC(=O)Nc1ccccc1C(=O)C(=O)Nc1cccc(C(=O)NC2CC2)c1 | inactive: 4.95%
49 | O=C(c1ccco1)N1CCN(c2c([N+](=O)[O-])nn(-c3ccc(Cl)cc3)[n+]2[O-])CC1 | inactive: 16.1%
50 | OC(CCN1CCOCC1)c1ccccc1 (stereo not given) | inactive: 0.876%
51 | CCNC(=O)C1(C)CCCN(C(=O)c2ccccc2Br)C1 (stereo not given) | inactive: -1.49%
52 | O=C(COc1ccc(Cl)cc1Cl)NN=C1c2ccccc2-c2ccccc21 | inactive: 9.77%
53 | C/C(=N\NC(=O)C1COc2ccccc2O1)c1cc2ccccc2o1 (stereo not given) | inactive: 4.42%
54 | COc1ccc(NC(=O)[C@@H]2CCCN2S(=O)(=O)c2ccc(Cl)cc2)cc1 | inactive: 28%

Row | Compound | growth rescue (activation)
55 | CC(OC(=O)CCc1nc2ccccc2c(=O)[nH]1)C(=O)Nc1cccc(C(F)(F)F)c1 (stereo not given) | inactive: 10.4%
56 | O=C(CSc1ccc(Cl)cc1)NC1CCCc2ccccc21 (stereo not given) | inactive: 8.01%
57 | Cc1cccc(OC(C)C(=O)OCC(=O)Nc2sccc2C(N)=O)c1 (stereo not given) | inactive: 21%
58 | CCOC(=O)C(Cc1ccc(OC)c([N+](=O)[O-])c1)NC(=O)CCC(=O)Nc1ccc(OC)cc1 (stereo not given) | inactive: -21%
59 | FC(F)Oc1ccc(NC(=S)NNc2ccnc3cc(Cl)ccc23)cc1 | inactive: 16.9%
60 | COc1ccc(-c2cc(C(=O)NCC3CCCO3)c3ccccc3n2)c(OC)c1 (stereo not given) | inactive: 6.01%
61 | CCS(=O)(=O)NCC(c1cccnc1)N1CCN(c2ccccc2F)CC1 (stereo not given) | inactive: 23.1%
62 | Cc1nc(NC(=O)CCC(=O)O)sc1C(=O)N(C)C | inactive: -14.6%
63 | Cc1ncc(CN2CCC(n3nccc3NC(=O)c3ccccc3)CC2)s1 | inactive: 11.5%
64 | Cc1cc(C)n2cc(CSc3nnnn3C)nc2n1 | inactive: -18.9%
65 | CCOc1cccc(C(=O)Nc2ccccc2C(=O)N2CCOCC2)c1 | inactive: -1.15%
66 | CC/C(C)=N/Nc1nc2c(c(=O)[nH]c(=O)n2C)n1CCc1ccccc1 | inactive: 7.53%
67 | Cc1ccc(-n2[nH]c(C)c(C=NCc3ccncc3)c2=O)cc1 | inactive: -23.4%
68 | COc1ccc2c(c1)-c1c(sn(-c3ccccc3)c1=S)C(C)(C)N2 | inactive: 26.5%
69 | CCOC(=O)NC1(C(F)(F)F)NC(=O)N(c2ccc(F)cc2)C1=O (stereo not given) | inactive: 0.513%
70 | COc1ccc(NC(=O)CC2CCCC2)cc1OC | inactive: 12.7%
71 | CCOC(=O)c1c(NC(=O)CSc2nc3nc(C)cc(C)n3n2)sc(CC)c1C | inactive: 5%
72 | CSc1ccc(/C=C(\NC(=O)c2ccc(C)cc2)C(=O)Nc2cccc(C)c2)cc1 | inactive: -1.23%
73 | COc1cccc(/C=N/NC(=O)CCNc2n[nH]c(=O)[nH]c2=O)c1OC | inactive: 2.74%
74 | C=C1C(C(=O)Nc2ccc(OCC)cc2)C1C(=O)Nc1ccc(OCC)cc1 (stereo not given) | inactive: -1.15%
75 | COc1ccc(/C=N/Nc2nc(=O)[nH]nc2C)cc1OC | inactive: 6.16%
76 | CC(C)c1ccc(OCC(=O)N(c2ccccn2)C2CCCCC2)cc1 | inactive: 2.6%
77 | CC(C)(C)NS(=O)(=O)c1ccc(NC(=O)C2CCCO2)cc1 (stereo not given) | inactive: -5.25%
78 | CCc1nc2ccc(C(=O)NCCCN3CCCC3=O)cn2c1N(C)C(=O)COc1ccccc1 | inactive: 0.0484%
79 | CCCCC(=O)NCc1ccc(F)cc1 | inactive: 12.5%
80 | CCc1nc2ccc(C(=O)Nc3cc(-c4ccccc4)ccc3OC)cn2c1N(C)Cc1ccc(Cl)cc1 | inactive: -45.2%
81 | CCC(C)c1ccc(NC(=S)NC2CCN(Cc3ccccc3)CC2)cc1 (stereo not given) | inactive: -8.7%

Row | Compound | growth rescue (activation)
82 | C=CCOc1cccc(/C=N/NC(=O)C(OC)c2ccccc2)c1 (stereo not given) | inactive: 21.6%
83 | O=C(N/N=C1\C2CN3CCN(C2)CC1(c1ccccc1)C3)Nc1ccccc1 | inactive: 4.05%
84 | CCN(CC)C(=O)c1cccc(-c2csc(C(C)(O)c3cccc(F)c3)n2)c1 (stereo not given) | inactive: 12.9%
85 | c1ccc2c(c1)[nH]c1c(N3CCC4(CC3)OCCO4)ncnc12 | inactive: 8.59%
86 | CCOC(=O)/C(Sc1nc(-c2ccccc2)cc(-c2ccccc2)c1C#N)=C(\C)O | inactive: -4.33%
87 | Cc1cc(C[n+]2cc(Cl)ccc2N)c2ncccc2c1 | inactive: 1.03%
88 | CCCn1cnc2cc(NC(=O)c3cc(OC)c(OC)c(OC)c3)ccc21 | inactive: -4.49%
89 | Cc1cc(S(=O)(=O)N2CCOCC2)ccc1OCC(=O)Nc1cccc(C(F)(F)F)c1 | inactive: 2.82%
90 | CC(C)C(NS(=O)(=O)c1c(Cl)cccc1Cl)C(=O)OCC(=O)c1c[nH]c2ccccc12 (stereo not given) | inactive: -9%
91 | COc1cccc(-c2cccc(NC(=O)C3CCN(C4CCC4)CC3)c2)c1 | inactive: 12.4%
92 | CCCCNC(=S)N/N=C/c1ccc(OCC(=O)Nc2c(C)cc(C)cc2C)c(OC)c1 | inactive: -3.91%
93 | CCOc1ccccc1NC(=O)C(C)SCc1ccccc1 (stereo not given) | inactive: 20.7%
94 | COC(=O)c1cc(-c2cccc(OC)c2)on1 | inactive: 33.1%
95 | COc1ccc(CNC(=O)CN(Cc2ccco2)C(=O)CNS(=O)(=O)c2ccc(C)cc2)cc1 | inactive: -3.08%
96 | NS(=O)(=O)c1ccc(NC(=O)CN2C(=O)c3ccccc3C2=O)cc1 | inactive: 3.63%
97 | COCCNC(=O)C1(C)CCCN(CC(=O)c2ccc(OC)cc2)C1 (stereo not given) | inactive: 12.2%
98 | O=S(=O)(c1ccccc1)c1nc(-c2ccco2)oc1Nc1ccccc1 | inactive: 15.7%
99 | Cc1nc(SCCCSc2n[nH]c(C)n2)n[nH]1 | inactive: -11.4%
100 | CCOc1ccc(CNc2cc(C)nc3nc(-c4cccc(C)c4)nn23)cc1OC | inactive: 12.3%
101 | CCCN1CCN(C(=O)Cn2cnc3sc(C)c(S(=O)(=O)N4CCC(C)CC4)c3c2=O)CC1 | inactive: 4.96%
102 | CCOc1cc(C)nc(N2CCC(C(=O)NCC3CCCO3)CC2)n1 (stereo not given) | inactive: -21.8%
103 | CCc1ccc(S(=O)(=O)Nc2c(C)nc3nc[nH]n3c2=O)cc1 | inactive: 4.27%
104 | O=C(COC(=O)c1cc(=O)c2ccccc2o1)Nc1ccccc1F | inactive: -3.88%
105 | CCOc1ccc(N2C(=O)/C(=C\c3ccc(O)c(OC)c3)S(=O)(=O)C2c2cccc([N+](=O)[O-])c2)cc1 (stereo not given) | inactive: 0.208%
